The other results are listed elsewhere or left out.
Assays:
Assay in all cases: glycan array binding signal (z-score within array); higher = stronger binding
Settings in all cases: glycan notation: IUPAC condensed, linker removed
[1] = target: GlcNAc(b1-4)[GlcNAc(b1-6)]GalNAc
Procedure, shortened: (§1)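 Arrays were curated from the Consortium for Functional Glycomics database, 3228 in total, and kept only where the protein sequence was available. Binding is expressed as a within-array Z-score. This score was averaged across arrays of the same protein sequence at different concentrations or buffers and across linkers, and negative values can be read as non-binding.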

[2] = target: GlcNAc(b1-6)Gal(b1-4)GlcNAc
Procedure, shortened: as §1

GlcNAc(b1-6)GalNAc = target: GlcNAc(b1-6)GalNAc
Procedure, shortened: as §1

[3] = target: GlcNAc6S(b1-3)Gal(b1-4)GlcNAc
Procedure, shortened: as §1

Kdn(a2-3)Gal(b1-3)GalNAc = target: Kdn(a2-3)Gal(b1-3)GalNAc
Procedure, shortened: as §1

Kdn(a2-3)Gal(b1-3)GlcNAc = target: Kdn(a2-3)Gal(b1-3)GlcNAc
Procedure, shortened: as §1

Kdn(a2-3)Gal(b1-4)Glc = target: Kdn(a2-3)Gal(b1-4)Glc
Procedure, shortened: as §1

Kdn(a2-3)Gal(b1-4)GlcNAc = target: Kdn(a2-3)Gal(b1-4)GlcNAc
Procedure, shortened: as §1

[4] = target: Kdn(a2-3)Gal(b1-4)[Fuc(a1-3)]GlcNAc
Procedure, shortened: as §1

Kdn(a2-6)Gal(b1-4)GlcNAc = target: Kdn(a2-6)Gal(b1-4)GlcNAc
Procedure, shortened: as §1

[5] = target: Man(a1-2)Man(a1-2)Man(a1-3)Man
Procedure, shortened: as §1

[6] = target: Man(a1-2)Man(a1-2)Man(a1-6)[Man(a1-3)]Man
Procedure, shortened: as §1

Man(a1-2)Man(a1-3)Man = target: Man(a1-2)Man(a1-3)Man
Procedure, shortened: as §1

[7] = target: Man(a1-2)Man(a1-3)[Man(a1-2)Man(a1-6)]Man
Procedure, shortened: as §1

[8] = target: Man(a1-2)Man(a1-3)[Man(a1-2)Man(a1-6)]Man(a1-6)[Man(a1-2)Man(a1-2)Man(a1-3)]Man
Procedure, shortened: as §1

[9] = target: Man(a1-2)Man(a1-3)[Man(a1-2)Man(a1-6)]Man(a1-6)[Man(a1-2)Man(a1-2)Man(a1-3)]Man(b1-4)GlcNAc(b1-4)GlcNAc
Procedure, shortened: as §1

[10] = target: Man(a1-2)Man(a1-3)[Man(a1-6)]Man(a1-6)[Man(a1-2)Man(a1-3)]Man(b1-4)GlcNAc(b1-4)GlcNAc
Procedure, shortened: as §1

[11] = target: Man(a1-2)Man(a1-6)[Man(a1-3)]Man(a1-6)[Man(a1-2)Man(a1-2)Man(a1-3)]Man
Procedure, shortened: as §1

[12] = target: Man(a1-2)Man(a1-6)[Man(a1-3)]Man(a1-6)[Man(a1-2)Man(a1-2)Man(a1-3)]Man(b1-4)GlcNAc(b1-4)GlcNAc
Procedure, shortened: as §1

Man(a1-3)[Man(a1-6)]Man = target: Man(a1-3)[Man(a1-6)]Man
Procedure, shortened: as §1

[13] = target: Man(a1-3)[Man(a1-6)]Man(a1-6)[Man(a1-2)Man(a1-3)]Man(b1-4)GlcNAc(b1-4)GlcNAc
Procedure, shortened: as §1

[14] = target: Man(a1-3)[Man(a1-6)]Man(a1-6)[Man(a1-3)]Man
Procedure, shortened: as §1

[15] = target: Man(a1-3)[Man(a1-6)]Man(a1-6)[Man(a1-3)]Man(b1-4)GlcNAc(b1-4)GlcNAc
Procedure, shortened: as §1

[16] = target: Man(a1-3)[Man(a1-6)]Man(b1-4)GlcNAc(b1-4)GlcNAc
Procedure, shortened: as §1

[17] = target: Man(a1-3)[Man(a1-6)]Man(b1-4)GlcNAc(b1-4)[Fuc(a1-6)]GlcNAc
Procedure, shortened: as §1

Man(a1-6)Man = target: Man(a1-6)Man
Procedure, shortened: as §1

Man(b1-4)GlcNAc = target: Man(b1-4)GlcNAc
Procedure, shortened: as §1

MurNAc(b1-4)GlcNAc = target: MurNAc(b1-4)GlcNAc
Procedure, shortened: as §1

Neu5Ac(a2-3)Gal = target: Neu5Ac(a2-3)Gal
Procedure, shortened: as §1

[18] = target: Neu5Ac(a2-3)Gal(b1-3)GalNAc
Procedure, shortened: as §1

[19] = target: Neu5Ac(a2-3)Gal(b1-3)GalNAc(b1-3)Gal(a1-4)Gal(b1-4)Glc
Procedure, shortened: as §1

[20] = target: Neu5Ac(a2-3)Gal(b1-3)GalNAc(b1-4)[Neu5Ac(a2-3)]Gal(b1-4)Glc
Procedure, shortened: as §1

[21] = target: Neu5Ac(a2-3)Gal(b1-3)GalNAc(b1-4)[Neu5Ac(a2-8)Neu5Ac(a2-3)]Gal(b1-4)Glc
Procedure, shortened: as §1

[22] = target: Neu5Ac(a2-3)Gal(b1-3)GalNAc6S
Procedure, shortened: as §1

[23] = target: Neu5Ac(a2-3)Gal(b1-3)GlcNAc
Procedure, shortened: as §1

[24] = target: Neu5Ac(a2-3)Gal(b1-3)GlcNAc(b1-2)Man
Procedure, shortened: as §1

[25] = target: Neu5Ac(a2-3)Gal(b1-3)GlcNAc(b1-2)Man(a1-3)[GlcNAc(b1-4)][Neu5Ac(a2-3)Gal(b1-3)GlcNAc(b1-2)Man(a1-6)]Man(b1-4)GlcNAc(b1-4)GlcNAc
Procedure, shortened: as §1

[26] = target: Neu5Ac(a2-3)Gal(b1-3)GlcNAc(b1-2)Man(a1-3)[Neu5Ac(a2-3)Gal(b1-3)GlcNAc(b1-2)Man(a1-6)]Man(b1-4)GlcNAc(b1-4)GlcNAc
Procedure, shortened: as §1

[27] = target: Neu5Ac(a2-3)Gal(b1-3)GlcNAc(b1-3)Gal(b1-3)GlcNAc
Procedure, shortened: as §1

[28] = target: Neu5Ac(a2-3)Gal(b1-3)GlcNAc(b1-3)Gal(b1-4)GlcNAc
Procedure, shortened: as §1

[29] = target: Neu5Ac(a2-3)Gal(b1-3)GlcNAc(b1-3)GalNAc
Procedure, shortened: as §1

[30] = target: Neu5Ac(a2-3)Gal(b1-3)GlcNAc(b1-4)Gal(b1-4)Glc
Procedure, shortened: as §1

[31] = target: Neu5Ac(a2-3)Gal(b1-3)GlcNAc(b1-6)GalNAc
Procedure, shortened: as §1

[32] = target: Neu5Ac(a2-3)Gal(b1-3)GlcNAc6S
Procedure, shortened: as §1

[33] = target: Neu5Ac(a2-3)Gal(b1-3)[Fuc(a1-4)]GlcNAc
Procedure, shortened: as §1

B1: F17-L (Escherichia coli) (protein)
chain: GPDDYVPSQIAVNTSTLPGVVIGPADAHTYPRVIGELAGTSNQYVFNGGAIALMRGKFTPALPKIGSITYTFHQGNSRDSSDFDIYDIGVSGLGIIIGMAGYWPATPLVPINSSGIYIDPVGANTNPNTYNGATASFGARLFVAFVATGRLPNGYITIPTRQLGTILLEAKRTSLNNKGLTAPVMLNGGRIQVQSQTHHHHHH
- glycan array binding signal (z-score) [1]: -0.154
- glycan array binding signal (z-score) [2]: 0.019
- glycan array binding signal (z-score) (GlcNAc(b1-6)GalNAc): -0.174
- glycan array binding signal (z-score) [3]: -0.074
- glycan array binding signal (z-score) (Kdn(a2-3)Gal(b1-3)GalNAc): -0.039
- glycan array binding signal (z-score) (Kdn(a2-3)Gal(b1-3)GlcNAc): -0.147
- glycan array binding signal (z-score) (Kdn(a2-3)Gal(b1-4)Glc): -0.136
- glycan array binding signal (z-score) (Kdn(a2-3)Gal(b1-4)GlcNAc): -0.108
- glycan array binding signal (z-score) [4]: -0.034
- glycan array binding signal (z-score) (Kdn(a2-6)Gal(b1-4)GlcNAc): -0.182
- glycan array binding signal (z-score) [5]: -0.074
- glycan array binding signal (z-score) [6]: -0.087
- glycan array binding signal (z-score) (Man(a1-2)Man(a1-3)Man): -0.169
- glycan array binding signal (z-score) [7]: -0.153
- glycan array binding signal (z-score) [8]: -0.195
- glycan array binding signal (z-score) [9]: -0.086
- glycan array binding signal (z-score) [10]: -0.19
- glycan array binding signal (z-score) [11]: -0.149
- glycan array binding signal (z-score) [12]: -0.168
- glycan array binding signal (z-score) (Man(a1-3)[Man(a1-6)]Man): -0.047
- glycan array binding signal (z-score) [13]: -0.152
- glycan array binding signal (z-score) [14]: -0.029
- glycan array binding signal (z-score) [15]: -0.122
- glycan array binding signal (z-score) [16]: -0.034
- glycan array binding signal (z-score) [17]: -0.176
- glycan array binding signal (z-score) (Man(a1-6)Man): -0.102
- glycan array binding signal (z-score) (Man(b1-4)GlcNAc): -0.122
- glycan array binding signal (z-score) (MurNAc(b1-4)GlcNAc): 4.16
- glycan array binding signal (z-score) (Neu5Ac(a2-3)Gal): -0.099
- glycan array binding signal (z-score) [18]: -0.111
- glycan array binding signal (z-score) [19]: -0.09
- glycan array binding signal (z-score) [20]: -0.133
- glycan array binding signal (z-score) [21]: 0.06
- glycan array binding signal (z-score) [22]: -0.119
- glycan array binding signal (z-score) [23]: -0.088
- glycan array binding signal (z-score) [24]: -0.157
- glycan array binding signal (z-score) [25]: -0.002
- glycan array binding signal (z-score) [26]: -0.092
- glycan array binding signal (z-score) [27]: -0.063
- glycan array binding signal (z-score) [28]: -0.071
- glycan array binding signal (z-score) [29]: -0.074
- glycan array binding signal (z-score) [30]: -0.075
- glycan array binding signal (z-score) [31]: -0.122
- glycan array binding signal (z-score) [32]: -0.172
- glycan array binding signal (z-score) [33]: -0.039

From the supplement of paper PMC8728848
